Measured values taken from the supplement of paper PMC3334620.
Whole data set: some 33,000 sequences, median “E-score (-0.5 to 0.5)” near -0.041, cut for the highest 2% near 0.37. Some of the results follow.

target: T1, Ecm22 (UniProt Q05958); test: PBM E-score (8-mer binding enrichment) (E-score (-0.5 to 0.5)); higher = stronger / more preferred TF binding; most listed sequences are background and not binding sites; settings: protein concentration: 200 nM; construct: GST-full length
T1 sequence: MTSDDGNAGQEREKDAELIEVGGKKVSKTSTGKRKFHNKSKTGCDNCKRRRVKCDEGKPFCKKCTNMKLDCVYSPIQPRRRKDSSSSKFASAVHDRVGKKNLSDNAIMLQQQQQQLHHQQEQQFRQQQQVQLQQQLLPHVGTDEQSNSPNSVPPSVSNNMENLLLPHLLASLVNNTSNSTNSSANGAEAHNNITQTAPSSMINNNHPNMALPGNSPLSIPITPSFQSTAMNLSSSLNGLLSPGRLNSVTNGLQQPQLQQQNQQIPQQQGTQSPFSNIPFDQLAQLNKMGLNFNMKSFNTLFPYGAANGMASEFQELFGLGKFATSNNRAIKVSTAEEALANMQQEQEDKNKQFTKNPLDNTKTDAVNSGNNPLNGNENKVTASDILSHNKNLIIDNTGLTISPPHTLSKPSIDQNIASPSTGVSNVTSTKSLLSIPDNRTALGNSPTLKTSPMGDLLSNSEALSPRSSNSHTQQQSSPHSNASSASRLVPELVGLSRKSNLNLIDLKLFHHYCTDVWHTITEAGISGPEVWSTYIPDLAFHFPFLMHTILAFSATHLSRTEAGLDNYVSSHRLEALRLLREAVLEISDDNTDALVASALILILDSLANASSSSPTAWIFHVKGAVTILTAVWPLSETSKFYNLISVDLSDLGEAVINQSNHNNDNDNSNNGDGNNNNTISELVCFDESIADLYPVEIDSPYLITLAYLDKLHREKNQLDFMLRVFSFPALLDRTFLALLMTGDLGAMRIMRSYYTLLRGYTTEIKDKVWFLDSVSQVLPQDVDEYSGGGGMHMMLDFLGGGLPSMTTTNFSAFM
Summary of the method: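 Full-length yeast transcription factors or their DNA-binding domains, GST-tagged and expressed with PURExpress, were applied at about 100-200 nM to universal all-10-mer Agilent arrays. These arrays had been made double-stranded by primer extension on fresh or once-stripped slides. Detection used fluorescent anti-GST, normalisation used masliner, and E-scores for ungapped eight-base words pooled with reverse complements came from the Universal PBM Analysis Suite.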

Sequence	PBM E-score
CGTATGCC	0.333
CTCAAAAG	-0.0411
TACCGCCA	-0.0721
TCCATTAA	-0.131
GCGCCAGA	-0.174
AAAGTGCG	0.017
TTAGCAAA	-0.268
GTATCCAC	0.143
AGTGAATG	0.0364
AAGCGAAG	0.271
ATGTCTTG	-0.0219
ACAATCAT	-0.233
GCGCAAGA	-0.0808
TACGATCA	0.443
CGTGTATA	0.151
ATAGCGCA	-0.0397
GGCGGAAC	-0.0162
AGGCGTCC	-0.241
CCATGGCC	-0.243
CATCCAGC	0.0233
GAGCTAGA	-0.0397
AACAAAAG	0.0744
CCCTGAAC	0.16
GACTCTTA	-0.162
CTCTGAGA	-0.211

Sequence	PBM E-score
AAGCCCAT	-0.233
AAGGCCAA	-0.129
AACATCAT	-0.104
CCTATTGA	-0.0181
AGACCTAT	0.0825
CGCGAAAG	0.144
CGGGTCAG	0.0346
GATGAGAC	-0.0882
CTTACTAA	0.022
GCTCACCC	-0.0386
CTGCCTTC	-0.225
AACACGTA	0.238
GACCGTCC	-0.116
AACGTAGG	-0.108
GAGTAGAC	0.0681
CCAAACAG	-0.2
CAAAGCTC	-0.177
AGTGACAT	-0.283
GCCAGGAA	-0.111
GAGCGCTA	-0.155
AATTCATA	0.00157
CCAGTTAA	0.177
GTTATCCA	-0.125
CCATAGAC	-0.209
ACTCTGCC	-0.0654

Sequence	PBM E-score
CTGTTTAC	0.0671
CTCCTAAC	-0.0295
ACCGAGAA	0.267
CCACGCGG	-0.139
CCCATTAA	-0.0672
GAGTGGGA	0.13
CATGGAAA	-0.072
ACAGCAGG	-0.222
AATCATCA	-0.0214
ATGACGGA	-0.0489
GAAGCATA	-0.107
GCTATTTA	-0.0945
ACGCACTG	0.0575
AAAAGACA	-0.0279
GAGTGAGA	-0.164
AGTTGGGA	-0.0908
ATAGCCAT	-0.0163
ACGACACA	0.352
CTACCAGA	-0.205
ATAGCTCG	0.173
AACCTGTC	0.0384
CTGATGAA	-0.0703
TGTAATAA	-0.0638
CGCGTTCC	0.284
ATTCGACC	-0.00106

Sequence	PBM E-score
TCACAAGA	-0.236
ATGCGTAC	0.3
GTTTGCGA	0.258
CGCCGAAC	0.197
CGCAGCCA	-0.0169
GGTCACGA	0.116
CGGCAGAA	0.00319
TGGAACCA	-0.0927
ATAACCGA	0.286
CAAGGTGA	-0.106
ATATGTCA	-0.0109
GCAGTGCC	-0.179
AGATTCCT	-0.227
GCCTATAC	0.00784
CAAGTAAG	-0.302
AAACGATT	0.42
CAGCGAGG	-0.141
GCATCTGA	-0.207
CCATTTGC	-0.0821
ACGAACCA	0.391
ATTTCCTC	0.0768
CATAGCGG	-0.0573
CGCTCTGC	0.0549
AACTCGTA	0.47
AAGTTTGC	-0.0114

Sequence	PBM E-score
CGAGAAAG	0.109
CGAGCAGA	0.192
AACGCACA	0.135
GCCGCGGC	0.16
ATCATGGA	-0.243
GGGTTAAA	0.0395
AATGGAGC	-0.0454
GGTCCGAC	0.17
CAGTTTCG	0.0868
CTTCTGTA	-0.0207
GCGACCGA	0.218
AACTTCCC	-0.0659
ATGCTTGG	-0.113
CTACGAGA	0.385
ATCGATCC	0.0447
CATGCGCG	-0.0112
AAGAAGTC	-0.16
AGAAGAGA	-0.0866
ATTTTTCA	-0.017
CCTCCCCG	0.0606
AGGAATTA	0.00567
CGATCAAA	0.15
TAACCGCA	0.0749
GCTTCATA	-0.135
CACACGGG	-0.23

Sequence	PBM E-score
AAGCAAAA	-0.13
CTGTGGGA	-0.225
CTAATTTC	0.1
GCGATAGC	-0.0401
TAGAGAAA	-0.0156
CAAATACA	-0.0654
CAGCGGGC	-0.252
CAAACAGG	-0.00237
CCGCCCCC	-0.274
CAGCTCCA	-0.15
AATACAAG	-0.0209
CTCGAAAC	0.0639
AATCATGA	0.0738
CCTGCTCC	-0.0691
CCAAGTCA	-0.149
AATAAAAG	-0.165
AGTTTGGC	-0.00953
TCAAGACA	-0.228
AAAAACTT	-0.152
CAGATTCG	-0.0112
ACCAGATG	-0.109
CCAGACCC	-0.2
CCGAGGGA	-0.0341
AGGCGCCA	-0.163
GGTGACAC	-0.179

Sequence	PBM E-score
CGGGCCCC	-0.116
GGGACTCA	-0.201
TCGCACGA	0.183
AATGTCCA	-0.296
CAAATTCA	-0.345
AACAAGCT	0.0706
GTTTGGGA	0.172
ACACCACT	0.0634
CCACCCGC	-0.0883
GTAATTGA	0.0734
GATTTACC	0.039
GACCGGGA	-0.0371
ATGGCAAT	0.0142
CTAGCTAC	-0.0828
AAGAGGAG	-0.00745
ATACCTAG	-0.0691
AGTGTGTA	-0.069
CACCTTTA	-0.0916
GAGTTATC	0.166
GATTCAAA	-0.126
CATCCCAC	-0.198
ACTAATGG	-0.153
